pIC50: −log10 of the molar value.
Assays:
Assay in all cases: Cell proliferation assay (CellTiter-Glo)
Assay type in all cases: cell-based
[1] = system: MDA-MB-231; settings: Homo sapiens, Breast, 72 hours, 0.5% fetal bovine serum, read-out: antiproliferative activity IC50, MDA-MB-231
Method: (§1) Cell Proliferation Assay:
(§2) Cancer cell lines were plated at 5,000 to 10,000 per well in 96-well flat bottomed plates with various concentration of compounds. The cells were incubated with compounds for 72 hours in the presence of 0.5% of fetal bovine serum. Growth inhibition was accessed by adenosine triphosphate (ATP) content assay using Promega CellTiter-Glo kit. Promega CellTiter-Glo kit is an ATP monitoring system based on firefly luciferase. Briefly, 16 μl of mammalian cell lysis and substrate solution was added to 84 μl of culture medium per well to lyse the cells and stabilize the ATP. The mixture was shaken and incubated for 30 minutes and subsequently the luminescence was measured.

[2] = system: SW403; settings: Homo sapiens, SW-403; Colon; 72 hours, 0.5% fetal bovine serum; read-out: antiproliferative activity IC50, SW403
Method: as §1, §2

[3] = system: T-84; settings: Homo sapiens, T84; Colon; 72 hours, 0.5% fetal bovine serum; read-out: antiproliferative activity IC50, T-84
Method: as §1, §2

[4] = system: H2122; settings: Homo sapiens, NCI-H2122; NSCLC; 72 hours, 0.5% fetal bovine serum; read-out: antiproliferative activity IC50, H2122
Method: as §1, §2

[5] = system: PC-3; settings: Homo sapiens, Prostate, 72 hours, 0.5% fetal bovine serum, read-out: antiproliferative activity IC50, PC-3
Method: as §1, §2

[6] = system: CaPan2; settings: Homo sapiens, Capan-2; Pancreas; 72 hours, 0.5% fetal bovine serum; read-out: antiproliferative activity IC50, CaPan2
Method: as §1, §2

[7] = system: LN-Cap; settings: Homo sapiens, LNCaP; Prostate; 72 hours, 0.5% fetal bovine serum; read-out: antiproliferative activity IC50, LN-Cap
Method: as §1, §2

[8] = system: MiaPaca1; settings: Pancreas; 72 hours, 0.5% fetal bovine serum; read-out: antiproliferative activity IC50, MiaPaca1
Method: as §1, §2

[9] = system: H292; settings: Homo sapiens, NCI-H292; NSCLC; 72 hours, 0.5% fetal bovine serum; read-out: antiproliferative activity IC50, H292
Method: as §1, §2

[10] = system: WiDr; settings: Homo sapiens, Colon, 72 hours, 0.5% fetal bovine serum, read-out: antiproliferative activity IC50, WiDr
Method: as §1, §2

[11] = system: SW1990; settings: Homo sapiens, Pancreas, 72 hours, 0.5% fetal bovine serum, read-out: antiproliferative activity IC50, SW1990
Method: as §1, §2

[12] = system: Calu6; settings: Homo sapiens, Calu-6; NSCLC; 72 hours, 0.5% fetal bovine serum; read-out: antiproliferative activity IC50, Calu6
Method: as §1, §2

[13] = system: H358; settings: Homo sapiens, NCI-H358; NSCLC; 72 hours, 0.5% fetal bovine serum; read-out: antiproliferative activity IC50, H358
Method: as §1, §2

[14] = system: SW620; settings: Homo sapiens, SW-620; Colon; 72 hours, 0.5% fetal bovine serum; read-out: antiproliferative activity IC50, SW620
Method: as §1, §2

[15] = system: A549; settings: Homo sapiens, NSCLC, 72 hours, 0.5% fetal bovine serum, read-out: antiproliferative activity IC50, A549
Method: as §1, §2

[16] = system: OPM-2; settings: Homo sapiens, Multiple Myeloma, 72 hours, 0.5% fetal bovine serum, read-out: antiproliferative activity IC50, OPM-2
Method: as §1, §2

[17] = system: CFPAC-1; settings: Homo sapiens, Pancreas, 72 hours, 0.5% fetal bovine serum, read-out: antiproliferative activity IC50, CFPAC-1
Method: as §1, §2

[18] = system: OVCAR-5; settings: Homo sapiens, Ovarian, 72 hours, 0.5% fetal bovine serum, read-out: antiproliferative activity IC50, OVCAR-5
Method: as §1, §2

[19] = system: PANC-1; settings: Homo sapiens, Pancreas, 72 hours, 0.5% fetal bovine serum, read-out: antiproliferative activity IC50, PANC-1
Method: as §1, §2

[20] = system: CaPan1; settings: Homo sapiens, CAPAN-1; Pancreas; 72 hours, 0.5% fetal bovine serum; read-out: antiproliferative activity IC50, CaPan1
Method: as §1, §2

[21] = system: HCT116; settings: Homo sapiens, HCT-116; Colon; 72 hours, 0.5% fetal bovine serum; read-out: antiproliferative activity IC50, HCT116
Method: as §1, §2

[22] = system: H460; settings: Homo sapiens, NCI-H460; NSCLC; 72 hours, 0.5% fetal bovine serum; read-out: antiproliferative activity IC50, H460
Method: as §1, §2

[23] = system: SWI-116; settings: Colon; 72 hours, 0.5% fetal bovine serum; read-out: antiproliferative activity IC50, SWI-116
Method: as §1, §2

pIC50 [1]: 5.00 to 6.00
pIC50 [2]: 5.00 to 6.00
pIC50 [4]: 5.00 to 6.00
pIC50 [5]: 5.00 to 6.00
pIC50 [8]: 5.00 to 6.00
pIC50 [9]: 5.00 to 6.00
pIC50 [11]: 5.00 to 6.00
pIC50 [12]: 5.00 to 6.00
pIC50 [13]: 5.00 to 6.00
pIC50 [14]: 5.00 to 6.00
pIC50 [15]: 5.00 to 6.00
pIC50 [18]: 5.00 to 6.00
pIC50 [19]: 5.00 to 6.00
pIC50 [21]: 5.00 to 6.00
pIC50 [22]: 5.00 to 6.00
Compound: O=C(CCCCCCC(=O)Nc1ccccc1)NO [SAHA, Suberoylanilide hydroxamic acid, reference compound]
pIC50 [3]: 5.00 to 6.00
pIC50 [6]: 5.00 to 6.00
pIC50 [7]: 6.00 to 7.00
pIC50 [10]: 5.00 to 6.00
pIC50 [16]: 6.00 to 7.00
pIC50 [17]: 5.00 to 6.00
pIC50 [20]: 5.00 to 6.00
pIC50 [23]: 5.00 to 6.00

From patent US20130102595A1 (Curis, Inc., priority 2011, published 2013)
